Laboratory results from the supplement of paper PMC3334620.
The full ranking holds about 33,000 sequences; the median of “E-score (-0.5 to 0.5)” is about -0.035, and the highest 2% start at about 0.34. Some of the results follow.

biological target: T1, Mot3 (UniProt P54785); experiment: PBM E-score (8-mer binding enrichment) (E-score (-0.5 to 0.5)); higher = stronger / more preferred TF binding; most listed sequences are background and not binding sites; details: protein concentration: 200 nM; construct: GST-full length
T1 sequence: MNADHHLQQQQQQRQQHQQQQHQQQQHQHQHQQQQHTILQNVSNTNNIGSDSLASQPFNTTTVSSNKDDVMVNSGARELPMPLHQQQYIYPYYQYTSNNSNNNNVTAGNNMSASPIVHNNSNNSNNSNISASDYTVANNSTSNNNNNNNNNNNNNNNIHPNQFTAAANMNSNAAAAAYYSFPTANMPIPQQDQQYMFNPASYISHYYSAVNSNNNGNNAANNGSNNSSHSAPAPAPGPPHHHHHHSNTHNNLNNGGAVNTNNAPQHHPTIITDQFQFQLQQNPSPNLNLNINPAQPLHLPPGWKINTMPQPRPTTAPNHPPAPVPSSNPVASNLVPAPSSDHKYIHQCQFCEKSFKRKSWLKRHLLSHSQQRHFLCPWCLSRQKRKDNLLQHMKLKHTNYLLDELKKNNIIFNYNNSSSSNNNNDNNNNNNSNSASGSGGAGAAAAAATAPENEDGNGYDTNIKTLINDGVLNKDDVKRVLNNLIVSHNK
Summary of the method: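 Each ungapped eight-base word and its reverse complement, pooled, received an E-score from the Universal PBM Analysis Suite. Underlying scans, normalised with masliner, recorded fluorescent anti-GST bound to GST-tagged yeast transcription factors. These were applied at about 100-200 nM to universal all-10-mer Agilent arrays double-stranded by primer extension.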

Sequence	PBM E-score
ATTGTCTC	-0.105
CGCCATGA	-0.215
TACTGTAA	0.194
ACGACTGA	-0.139
CAACTCGA	0.065
AGTAGGCG	0.0255
CTATAGTA	0.0403
GCCCAGAC	-0.216
CCTGAAAA	0.0999
ATAGTGAT	-0.129
CCGGTCGC	-0.104
AAAAAGTG	0.139
ACAAGCAC	0.189
GTGTACGA	0.0975
GCGCCCTA	-0.0762
AGATTTGA	-0.0563
AGTCTTGC	-0.00814
ATCTTTCA	0.0392
GGGGTTCA	-0.262
AGTCCAAC	-0.0517
AATAAGTA	0.124
AATTGAAG	0.0415
AGAAGCGC	-0.0935
ACTAGGAG	-0.189

Sequence	PBM E-score
GACGCAGC	0.0247
AATAGGAG	0.0114
TAGAAAGA	-0.132
CGGTCCGA	-0.278
AAGTGTAG	0.158
ACTCTTAC	0.12
CATTTATA	0.0679
AGAACAAC	0.0492
CGACACTA	-0.0502
GCCGTGGA	-0.169
AGGGGACG	-0.236
CATACCCA	0.107
AAGCCCTT	-0.182
CTGGTTCA	-0.121
ACGCAAGG	0.153
CTACCTCA	-0.107
AGCGCTAG	-0.115
CATGTCCG	-0.0566
CCCGGGCA	-0.252
CTCGAATC	-0.109
AGACCGGG	-0.307
CCGGACGA	-0.127
CCTTCAGA	-0.0591
CACACGCG	0.226

Sequence	PBM E-score
ACCGACTG	-0.299
AACAAAAC	0.171
ATAACAGA	0.241
TACCGGCA	-0.145
CAGTAGGA	-0.095
AAATCCTT	-0.0785
AGGGTTGA	0.0573
CACCGGTC	-0.244
GAGTCCCA	-0.261
ATTACGAC	0.143
AGTTAGGG	-0.0425
CCCGTTCC	0.0893
AAACTTAA	0.209
ATGTTAGG	0.181
AGAAGTCT	-0.108
GAGATTCC	-0.339
AATCTTCC	-0.232
ACACAAGA	0.237
CCATTAGA	-0.398
ATCTAATG	0.0747
CACAAACA	0.181
CTACATTA	0.196
AGAACACC	0.0423
AATTCACA	0.195

Sequence	PBM E-score
CAACGTTA	0.223
GACGGGGC	-0.274
AATAAGCG	-0.116
CCCGTAGC	-0.21
CTACACAC	0.333
CGTGCAGC	-0.082
ACACAACC	0.255
GTCAGAAA	0.0298
CATGATTC	0.0646
AATAAAAC	0.0769
GGCAAGTA	0.328
ATAATGGA	-0.0891
ACATGCTG	0.264
ATACTATG	-0.158
ACCCATTC	-0.0384
GGGGGCCA	-0.252
ATTACTAA	0.151
TTACTAAA	0.136
CCTAGGCG	-0.157
CGAAGTGC	0.0724
GTATTCCA	0.0481
AATGTCTA	0.129
